Screen size: about 310,000 compounds; about 14,000 (4.5%) showed an effect of 50% or more. The effect is printed as a negative number. The list shows a part of the results.
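Further: peak tail current of the secondary pulse compared with the same well before compound.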

The target of this assay is human ether-à-go-go-related gene (hERG) potassium channel (human, UniProt Q12809). Kind of assay: primary screen, population patch clamp on CHO cells stably expressing hERG.
Chain of human ether-à-go-go-related gene (hERG) potassium channel (Q12809 whole entry, looked up): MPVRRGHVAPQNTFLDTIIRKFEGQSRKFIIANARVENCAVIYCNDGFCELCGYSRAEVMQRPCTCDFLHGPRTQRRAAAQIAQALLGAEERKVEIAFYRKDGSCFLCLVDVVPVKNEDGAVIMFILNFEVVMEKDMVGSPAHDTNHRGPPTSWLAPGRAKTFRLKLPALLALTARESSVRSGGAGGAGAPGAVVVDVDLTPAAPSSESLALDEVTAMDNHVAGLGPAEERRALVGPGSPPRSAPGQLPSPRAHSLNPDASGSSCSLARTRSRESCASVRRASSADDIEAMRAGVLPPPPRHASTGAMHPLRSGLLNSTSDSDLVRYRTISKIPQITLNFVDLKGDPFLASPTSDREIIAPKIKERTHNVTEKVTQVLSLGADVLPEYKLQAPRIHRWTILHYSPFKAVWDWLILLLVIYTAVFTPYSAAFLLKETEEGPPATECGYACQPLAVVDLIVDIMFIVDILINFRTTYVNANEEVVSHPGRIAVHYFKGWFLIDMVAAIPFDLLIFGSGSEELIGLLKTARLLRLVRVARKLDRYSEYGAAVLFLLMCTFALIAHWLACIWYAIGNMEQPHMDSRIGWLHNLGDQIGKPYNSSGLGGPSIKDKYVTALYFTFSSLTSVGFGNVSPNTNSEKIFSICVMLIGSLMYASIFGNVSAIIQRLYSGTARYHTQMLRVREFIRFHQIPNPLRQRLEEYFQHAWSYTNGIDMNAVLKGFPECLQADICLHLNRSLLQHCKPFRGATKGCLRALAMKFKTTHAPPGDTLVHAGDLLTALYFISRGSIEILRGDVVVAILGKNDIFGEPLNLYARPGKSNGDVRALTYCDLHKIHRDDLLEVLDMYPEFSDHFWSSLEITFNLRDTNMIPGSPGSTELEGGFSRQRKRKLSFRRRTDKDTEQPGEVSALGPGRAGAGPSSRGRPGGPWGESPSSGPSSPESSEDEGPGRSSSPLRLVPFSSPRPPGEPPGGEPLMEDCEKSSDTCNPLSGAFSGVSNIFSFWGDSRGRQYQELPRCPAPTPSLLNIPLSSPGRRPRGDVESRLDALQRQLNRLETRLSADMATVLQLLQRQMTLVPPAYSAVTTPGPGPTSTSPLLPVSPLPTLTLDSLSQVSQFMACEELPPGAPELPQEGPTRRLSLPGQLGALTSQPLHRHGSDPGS
As for `O=C(NCCOc1ccc(Cl)cc1)c1ccc2c(c1)OCCO2`, the “hERG current change (%, negative = inhibition) at 10uM” value is recorded as -7.8%.
On to `C/C(=N\NC(=S)NCCc1ccccc1)c1ccc(C#N)cc1`, for which the “hERG current change (%, negative = inhibition) at 10uM” value is recorded as -10.3%.
For the compound `O=C(Cn1cc(C(=O)c2ccccc2F)c2ccccc21)NC1CC1`, the “hERG current change (%, negative = inhibition) at 10uM” value was -4.44%.
Consider `CN(CC(=O)Nc1ccccc1Br)C(=O)c1ccncc1`, for which the “hERG current change (%, negative = inhibition) at 10uM” value amounted to 24.3%.
As to `CC(C)[C@H](N)C(=O)OCCOCn1cnc2c(=O)[nH]c(N)nc21`, the “hERG current change (%, negative = inhibition) at 10uM” value is on record as 16.6%.
`Cc1nn(Cc2ccc(Cl)c(Cl)c2)c(C)c1NC(=O)c1cc(CC(C)C)on1`: the “hERG current change (%, negative = inhibition) at 10uM” value is -6.99%.
Consider `COc1ccc(Oc2cn[nH]c2-c2ccc(OCC(=O)NN)cc2O)cc1`, for which the “hERG current change (%, negative = inhibition) at 10uM” value is 6.68%.
As to `COC(=O)C1=CN(Cc2cccs2)C=C(C(=O)OC)C1c1cccc(O)c1`, the “hERG current change (%, negative = inhibition) at 10uM” value is on record as -30.9%.
As to `CCCN1C(=O)/C(=C2\SC(N3CCCCC3)=NC2=O)c2ccccc21`, the “hERG current change (%, negative = inhibition) at 10uM” value turned out to be 0.422%.
Take `C=CCN1C(=O)NC(=O)C(Cc2ccc(OC)c(OC)c2)C1=O` (stereo not shown): the “hERG current change (%, negative = inhibition) at 10uM” value was 18%.
Then `CCSc1nnc(NC(=O)c2cc(C)oc2C)s1`, with 17.7%.
In the case of `Cc1cc(F)ccc1S(=O)(=O)N1CCCOC1CNC(=O)C(=O)NCc1ccco1` (stereo not shown), the “hERG current change (%, negative = inhibition) at 10uM” value is listed as 2.99%.
Then `OCCNc1nc2ccc(Cl)cc2[nH]1`, with -4.36%; and `O=C(CN1C(=O)NC(Cc2ccccc2)C1=O)Nc1ccc(F)cc1` (stereo not shown), with -7.41%; and `O=C(CCSc1nc(-c2ccco2)cc(C(F)(F)F)n1)NCC1CCCO1` (stereo not shown), with -8.69%.
Regarding `COc1ccc(CCNC(=O)CO/N=C/c2cc3c(cc2Br)OCO3)cc1OC`, the “hERG current change (%, negative = inhibition) at 10uM” value is recorded as -4%.
Take `COc1ccc(C(C)=O)cc1COC(=O)Cc1cc(OC)c(OC)c(OC)c1`: the “hERG current change (%, negative = inhibition) at 10uM” value is reported as -9.26%.
Then `Nc1nn(S(=O)(=O)c2ccccc2)cc1-c1ccc([N+](=O)[O-])cc1`, with -9.96%; and `Cc1cccc(-n2c(O)c(C=NCc3cccnc3)c(=O)[nH]c2=O)c1C`, with 11.4%; and `COc1ccc(C(C)=O)cc1CC(C(=O)c1ccc(F)cc1)N(C)C` (stereo not shown), with -6.6%.
With `O=C(CSc1ncn(-c2ccccc2)n1)c1cccs1`, the “hERG current change (%, negative = inhibition) at 10uM” value is -3.5%.
For `CC1CCCCC1NC(=O)COC(=O)c1ccc2ccccc2n1` (stereo not shown), the “hERG current change (%, negative = inhibition) at 10uM” value came out at 3.44%.
For the compound `COc1ccc(CNC(=O)c2nccnc2CO)cc1`, the “hERG current change (%, negative = inhibition) at 10uM” value is listed as 12.1%.
On to `COc1ccc(CNC(=O)N2CCc3ccccc3C2)cc1`, for which the “hERG current change (%, negative = inhibition) at 10uM” value is reported as -2.51%.
In the case of `CC(=O)NCCc1nc2cc(NC(=O)c3ccc(F)cc3)ccc2n1C`, the “hERG current change (%, negative = inhibition) at 10uM” value was 9.6%.
The figure for `COc1ccc(-n2nc(C(=O)NCC3CCCO3)c3ccccc3c2=O)cc1` (stereo not shown) is 31.7%; for `N#Cc1nc(-c2ccco2)oc1N1CCOCC1` it is 4.48%.
As for `Cc1ccc(C)c(C(=O)CSc2nc(N)cc(=O)[nH]2)c1`, the “hERG current change (%, negative = inhibition) at 10uM” value is recorded as -23.2%.
The figure for `CC1(C)Cc2[nH]c(=S)c(C#N)cc2CO1` is 17.8%; for `Cc1n[nH]c(=O)nc1Nc1ccc(O)cc1` it is 1.47%.
Consider `O=C(COC(=O)c1cc([N+](=O)[O-])ccc1NCCO)c1ccc(Cl)cc1`, for which the “hERG current change (%, negative = inhibition) at 10uM” value was 8.76%.
In the case of `Cc1c(NC(=O)c2cc(-c3cccc(Cl)c3)on2)c(=O)n(-c2ccccc2)n1C`, the “hERG current change (%, negative = inhibition) at 10uM” value is -36.4%.
The figure for `CCn1c(CNC(=O)c2cccc(C)c2)nnc1SCC(=O)NC1=NCCS1` is 22%; for `O=C(NCc1c[nH]c2ccccc12)c1ccccc1` it is 1.64%; for `COc1ccc(OC)c2sc(N3CCc4ccccc4C3)nc12` it is 16.4%.
With `Cc1ccc(C(=O)NCCCN2CCOCC2)c(C)c1`, the “hERG current change (%, negative = inhibition) at 10uM” value came to 26.1%.
`CCOC(=O)CSc1nnc(CCCCCN2C(=O)c3cccc4cccc(c34)C2=O)o1`: the “hERG current change (%, negative = inhibition) at 10uM” value is -4.55%.
As for `CC(CC(C)C(=O)N1CCOCCN(C(=O)C(C)CC(C)C(=O)O)CCOCC1)C(=O)O` (stereo not shown), the “hERG current change (%, negative = inhibition) at 10uM” value is 13.7%.
Turning to `CC(C)OP(=O)(OC(C)C)C(Nc1ccccc1)c1ccccc1C(F)(F)F` (stereo not shown), the “hERG current change (%, negative = inhibition) at 10uM” value is listed as -5.45%.
As to `Cc1cc(F)ccc1N1CCC(N2CCN(C)C(CCO)C2)CC1` (stereo not shown), the “hERG current change (%, negative = inhibition) at 10uM” value was found to be 22.1%.
For the compound `CCN(C(=O)CN1C(=O)/C(=C/c2ccc(F)cc2)SC1=S)C1CCS(=O)(=O)C1` (stereo not shown), the “hERG current change (%, negative = inhibition) at 10uM” value was -16.2%.
For `COc1ccc(OC)c(C2C3=C(N=c4s/c(=C\c5cccc(O)c5)c(=O)n42)c2ccccc2CC3)c1` (stereo not shown), the “hERG current change (%, negative = inhibition) at 10uM” value was -0.325%.
Take `CCOC(=O)c1nnn(-c2nonc2N)c1CN1CCCC1`: the “hERG current change (%, negative = inhibition) at 10uM” value is 11.4%.
For the compound `O=C(c1cccc(N2C(=O)C3C4C=CC(C4)C3C2=O)c1)N1CCN(c2ccccc2)CC1` (stereo not shown), the “hERG current change (%, negative = inhibition) at 10uM” value is on record as -1.68%.
Then `CC12CCC(C(=O)NCc3ccc4c(c3)OCO4)(OC1=O)C2(C)C` (stereo not shown), with 6.22%.
On to `O=C(NNc1c2ccccc2nc2ccccc12)c1cc2ccccc2cc1O`, for which the “hERG current change (%, negative = inhibition) at 10uM” value was determined as 17.2%.
For the compound `CCC(NC(=O)c1cc(COc2ccc(OC)cc2Cl)on1)c1ccncc1` (stereo not shown), the “hERG current change (%, negative = inhibition) at 10uM” value was -21%.
As for `Cc1ccccc1Nc1nc(=O)c2cc([N+](=O)[O-])ccc2s1`, the “hERG current change (%, negative = inhibition) at 10uM” value is reported as -6.28%.
The figure for `O=c1[nH]nc(SCc2ccccc2Cl)n1-c1ccc2c(c1)OCCO2` is -0.696%.
Regarding `CCOc1ccccc1NC(=O)C(=O)CC(=O)c1cccc(OC)c1`, the “hERG current change (%, negative = inhibition) at 10uM” value was found to be 15.3%.
Take `CS(=O)(=O)c1ccccc1C(=O)NC1CCCc2ccccc21` (stereo not shown): the “hERG current change (%, negative = inhibition) at 10uM” value was found to be 66.1%.
Regarding `CCN(C(=O)CSc1ccc2c(c1)OCCO2)C1CCS(=O)(=O)C1` (stereo not shown), the “hERG current change (%, negative = inhibition) at 10uM” value stood at 9.65%.
For `Cc1nc2ccc(NC(=O)c3ccc(Cl)s3)cc2s1`, the “hERG current change (%, negative = inhibition) at 10uM” value amounted to 10.6%.
For the compound `Cc1cc(/C=C2\C(=O)NC(=O)N(c3ccc(F)cc3)C2=O)c(C)n1-c1cccc(C(=O)O)c1`, the “hERG current change (%, negative = inhibition) at 10uM” value was 10.6%.
On to `Cc1nc(NC(=O)COC(=O)C(NC(=O)c2ccco2)C(C)C)c(Cl)cc1Cl` (stereo not shown), for which the “hERG current change (%, negative = inhibition) at 10uM” value is listed as -8.14%.
For `Cc1cc(NS(=O)(=O)c2ccc(NC(=O)CSc3nnc(-c4ccco4)n3Cc3ccco3)cc2)nc(C)n1`, the “hERG current change (%, negative = inhibition) at 10uM” value turned out to be 15.2%.
Then `Cc1n[nH]c(C)c1CCC(=O)N/N=C/c1c(C)[nH]c2ccccc12`, with 16.4%.
Consider `COC(=O)C1=C(c2ccc(S(C)(=O)=O)cc2)C[C@@H]2CC[C@H]1N2C(=O)NCc1ccc(C(F)(F)F)cc1`, for which the “hERG current change (%, negative = inhibition) at 10uM” value is -59.3%.
Take `COc1ccc(O)c(-c2cn[nH]c2-c2cccs2)c1`: the “hERG current change (%, negative = inhibition) at 10uM” value is reported as 7.6%.
Then `CCOC(=O)c1nn(-c2ccccc2)c(=O)cc1OCC(=O)Nc1cc(C)ccc1OC`, with -44%; and `COC(=O)CSc1nc(-c2ccccc2)c2c(c1C#N)CCCC2`, with 2.26%; and `O=C(NCc1ccco1)c1ccc(F)c(S(=O)(=O)N2CCCCC2)c1`, with -11.3%.
`Cn1nc(OC(=O)Nc2ccc(Cl)cc2)cc1C(F)(F)F`: the “hERG current change (%, negative = inhibition) at 10uM” value is recorded as 4.9%.
Turning to `Cc1cccc(N2CCN(CCc3ccccc3)CC2)c1C`, the “hERG current change (%, negative = inhibition) at 10uM” value was -75.1%.
Then `COc1ccc(N2CCN(Cc3nc4c(c(=O)n(C)c(=O)n4C)n3CCc3ccccc3)CC2)cc1`, with 13.5%; and `CCOC(=O)c1cnc2ccc(OC)cc2c1NCc1ccccc1`, with -65.8%; and `CN(C(=O)COC(=O)CSc1ccc([N+](=O)[O-])cc1)c1ccccc1`, with -27.8%.
Regarding `Cc1ccccc1OCC(=O)N(Cc1ccco1)c1c(N)n(Cc2ccccc2)c(=O)[nH]c1=O`, the “hERG current change (%, negative = inhibition) at 10uM” value amounted to 16.3%.
For the compound `N#Cc1c(-c2ccc(F)cc2)nc(-c2ccccc2)[nH]c1=O`, the “hERG current change (%, negative = inhibition) at 10uM” value amounted to 18.2%.
Then `COc1cccc(C2=NOC(C(=O)NCc3ccco3)C2)c1` (stereo not shown), with -5.82%.
In the case of `CCN(CC)S(=O)(=O)c1ccc(=O)[nH]c1`, the “hERG current change (%, negative = inhibition) at 10uM” value stood at 52.8%.
For `CC(CCc1ccccc1)NCc1ccncc1` (stereo not shown), the “hERG current change (%, negative = inhibition) at 10uM” value is reported as -8.72%.
The figure for `CCC(C(=O)Nc1nccs1)(C(F)(F)F)C(F)(F)F` is 3.58%; for `CC(=O)c1ccc(OCc2cc(C(=O)N(C)Cc3cc(C)no3)no2)cc1` it is -1.89%.
For `CC(C)Nc1ncnc2c1cnn2-c1ccc(Cl)cc1`, the “hERG current change (%, negative = inhibition) at 10uM” value is on record as -3.44%.
In the case of `Cc1ccc(S(=O)(=O)NCC(c2cccnc2)N2CCOCC2)cc1` (stereo not shown), the “hERG current change (%, negative = inhibition) at 10uM” value worked out at 5.12%.
As for `CC1CCCC(C)N1C(=S)SCC(=O)O` (stereo not shown), the “hERG current change (%, negative = inhibition) at 10uM” value was found to be 0.127%.
As to `O=C(O)CN1C(=O)CSc2ccccc21`, the “hERG current change (%, negative = inhibition) at 10uM” value is -30.6%.
Then `CC(=O)OC[C@H]1O[C@@H](O/N=C/C[C@@H]2C=C[C@H](OC(C)=O)[C@@H](COC(C)=O)O2)[C@H](OC(C)=O)[C@@H](OC(C)=O)[C@@H]1OC(C)=O`, with 2.63%.
For the compound `CCC1CN(C(=O)N2CCC(C(=O)NCc3ccccc3OC)CC2)c2ccccc2O1` (stereo not shown), the “hERG current change (%, negative = inhibition) at 10uM” value is -12.7%.
As for `Cc1cc(NC(=O)CSc2nnnn2-c2ccccc2C)no1`, the “hERG current change (%, negative = inhibition) at 10uM” value is on record as 11.6%.
Regarding `O=C(c1cccc(S(=O)(=O)N2CCOCC2)c1)N1CCCCCC1`, the “hERG current change (%, negative = inhibition) at 10uM” value is on record as -8.68%.
Then `O=C(Cn1c(O)c(/C=C2\C=Nc3ccccc32)sc1=O)N1CCOCC1`, with 20.5%; and `CCOc1ccc(CNC(=O)CS(=O)(=O)Cc2nc(-c3ccc(OC)cc3)oc2C)cc1`, with -0.888%.
With `CC(NS(=O)(=O)c1ccccc1)C(=O)NCc1ccco1` (stereo not shown), the “hERG current change (%, negative = inhibition) at 10uM” value came out at 10.3%.
As for `CCOc1ccc(-c2nnc(-c3snc(-c4ccc(F)cc4)c3N=CN(C)C)o2)cc1`, the “hERG current change (%, negative = inhibition) at 10uM” value is listed as 15.4%.
Turning to `O=C1CC(=O)Nc2cc(S(=O)(=O)N3CCN(c4ccc([N+](=O)[O-])cc4)CC3)ccc2N1`, the “hERG current change (%, negative = inhibition) at 10uM” value is given as -66.8%.
The figure for `COc1ccc(S(=O)(=O)Cc2ccc(C(=O)NCCCN3CCc4ccccc4C3)o2)cc1` is -51.2%.

Values taken from PMC4336329 (PLoS ONE, 2015).
